Data on three compounds can be found in patent US11542275B2, “Substituted imidazolidin-2-one derivatives as PRMT5 inhibitors” (Aurigene Discovery Technologies Limited, priority 2018, dated 2023).

The target of the assay is PRMT5/MEP50 Complex (Homo sapiens (Human), UniProt O14744). Kind of assay: PRMT5 inhibition based on TR-FRET assay. The format is biochemical. Particulars: 32 nM PRMT5:MEP50 complex, 50 nM Histone-H4 peptide, 1 μM SAM, 90 minutes at room temperature. The source says:
Protein arginine methyltransferase 5 (PRMT5) is a type II arginine methyltransferase that catalyze mono- and symmetric demethylation on arginine residues of histone or non-histone proteins in presence of S-adenosylmethionine (AdoMet or SAM) a cofactor responsible for donating the methyl group. PRMT5 is reported to be overexpressed in several human cancers. To identify compounds that inhibit the PRMT5 and decrease its activity, a TR-FRET based assay has been established. Time-resolved fluorescence resonance energy transfer (TR-FRET) HTS assays are homogeneous proximity assays where the interaction of two dye-labeled binding partners is detected by the energy transfer between a donor and an acceptor dye, and the subsequent light emission by the acceptor dye. PRMT5 catalyzes Histone H4 peptide which is biotin tagged to the Lysine amino acid at carboxyl end, in presence of S-adenosyl-1-methionine (SAM) to methylate the peptide. The antibody specific to mono methylated H4 peptide (H4R3) with Ig conjugate binds to the methylated peptide, indirectly binding to the Europium lanthanide. SureLight Allophycocyanin-Streptavidin binds to the biotin tag of the peptide, therefore accepting the energy transferred from the Europium lanthanide. This energy transfer between Europium to SureLight Allophycocyanin is a direct measure of the activity/inhibition of the PRMT5 enzyme.
Assay buffer: 20 mM BICINE (pH 7.6), 25 mM NaCl, 2 mM DTT, 0.01% Tween-20 and 0.01% BSA.
The compound dilutions were prepared as 7.5% DMSO stock solutions in assay buffer. To 2 μL (7.5×) of test compound, 5 μL of PRMT5 enzyme prepared in assay buffer (Final concentration of 32 nM in 15 μL reaction volume) was added and allowed for 30 minutes pre-incubation time in a white polystyrene 384-well plate at room temperature. […] The plates were then read on Victor-3 with Excitation at 340 nm and Emissions collected at 615 and 665 nm in TR-FRET protocol. […]
For orientation: In TR-FRET formats the signal depends on donor and acceptor labels being close together.

What is called IC50 is the concentration that gives 50% inhibition. Higher therefore signals weaker potency in that assay.

The compound `CC(=O)N1CCN(c2ccc(CN3CCN(C[C@H](O)CN4CCc5ccccc5C4)C3=O)nc2)C(C)C1` (stereo partly drawn) [Compound 21, 1-((5-(4-acetyl-2-methylpiperazin-1-yl)pyridin-2-yl)methyl)-3-((R)-3-(3,4-dihydroisoquinolin-2(1H)-yl)-2-hydroxypropyl)imidazolidin-2-one] registered an IC50 of 37 nM. This counts as double-digit nanomolar. In the case of `CC(=O)N1CCC(c2cnc(CN3CCN(C[C@H](O)CN4CCc5ccccc5C4)C3=O)cn2)CC1` [Compound 34, (R)-1-((5-(1-acetylpiperidin-4-yl)pyrazin-2-yl)methyl)-3-(3-(3,4-dihydroisoquinolin-2(1H)-yl)-2-hydroxypropyl)imidazolidin-2-one] it was 47 nM. In the case of `CCC(=O)N1CCC(c2ccc(CN3CCN(C[C@H](O)CN4CCc5ccccc5C4)C3=O)nc2)CC1` [Compound 44, (R)-1-(3-(3,4-dihydroisoquinolin-2(1H)-yl)-2-hydroxypropyl)-3-((5-(1-propionylpiperidin-4-yl)pyridin-2-yl)methyl)imidazolidin-2-one] it was 11 nM.
